Measured values: a collection of fitness landscapes (doi:10.1038/s41467-024-54723-y)
In all, about 18,000 sequences were measured (“TetR repression strength (sort-seq, GFP reporter)”: median about 0.23, highest 2% from about 0.68 on). This is one part of the list.

target: TetR (class B, Tn10) (UniProt P04483); experiment: TetR repression strength (sort-seq, GFP reporter) (relative to tetO2 = 1); higher = stronger repression; settings: E. coli
Outline: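 E. coli SIG10-MAX carried a low-copy plasmid library with eight randomized operator positions between a constitutive promoter and sfGFP, with TetR constitutively expressed. Cells grew 5 h at 37 °C in LB with 50 µg/mL chloramphenicol, then 10^6 cells were FACS-sorted into 13 fluorescence bins, each Illumina-sequenced. Repression strength is the top bin index plus one minus the read-weighted mean bin, divided by the wild-type operator value. Three independent transformations; variants with ≥30 reads in all replicates and CV ≤0.5 were averaged.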

UniProt P04483, sequence (P04483 whole entry): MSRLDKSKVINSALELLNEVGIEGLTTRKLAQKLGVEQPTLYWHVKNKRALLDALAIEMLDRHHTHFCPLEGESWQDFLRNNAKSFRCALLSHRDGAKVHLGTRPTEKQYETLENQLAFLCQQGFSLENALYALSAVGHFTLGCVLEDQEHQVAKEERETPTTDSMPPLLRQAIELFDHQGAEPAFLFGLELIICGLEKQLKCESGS

| Sequence | TetR repression strength |
| --- | --- |
| TCCCTTCGAGTCCGAGAGA | 0.228 |
| TCCCTGGAAGTGAGTGAGA | 0.187 |
| TCCCTACCAGTAATGGAGA | 0.278 |
| TCCCCCTGAGTAGTAGAGA | 0.207 |
| TCCCGGATAGTTTGGGAGA | 0.194 |
| TCCCCGGCAGTGTCTGAGA | 0.216 |
| TCCCAACGAGTAGGGGAGA | 0.0703 |
| TCCCTGACAGTCCGTGAGA | 0.248 |
| TCCCATCGAGTGTTCGAGA | 0.35 |
| TCCCAGTGAGTCTAGGAGA | 0.171 |
| TCCCGCGGAGTCAGTGAGA | 0.276 |
| TCCCATTAAGTCGGTGAGA | 0.0389 |
| TCCCGAGCAGTAATGGAGA | 0.167 |
| TCCCTTGTAGTCATGGAGA | 0.687 |
| TCCCTTTGAGTATGGGAGA | 0.0551 |
| TCCCAGTCAGTCACGGAGA | 0.0748 |
| TCCCGCCAAGTGAGAGAGA | 0.254 |
| TCCCCGGGAGTATAAGAGA | 0.235 |
| TCCCGCGGAGTGTCGGAGA | 0.485 |
| TCCCGAAGAGTTACTGAGA | 0.154 |
| TCCCAGTTAGTTTAAGAGA | 0.267 |
| TCCCCGGGAGTAGGCGAGA | 0.134 |
| TCCCGCGTAGTCTACGAGA | 0.189 |
| TCCCATGGAGTGATTGAGA | 0.171 |
| TCCCTGCCAGTTCCGGAGA | 0.127 |
| TCCCTAACAGTCAAGGAGA | 0.364 |

| Sequence | TetR repression strength |
| --- | --- |
| TCCCACAGAGTGAACGAGA | 0.387 |
| TCCCTAGGAGTGGGAGAGA | 0.18 |
| TCCCTTATAGTAGATGAGA | 0.191 |
| TCCCTGTCAGTCAGGGAGA | 0.213 |
| TCCCTCTGAGTGATCGAGA | 0.0564 |
| TCCCAGATAGTCGGGGAGA | 0.184 |
| TCCCGTTGAGTTATCGAGA | 0.304 |
| TCCCGTTCAGTTGGGGAGA | 0.173 |
| TCCCTGTCAGTAACAGAGA | 0.373 |
| TCCCGTTCAGTATGTGAGA | 0.259 |
| TCCCGTCTAGTCGGGGAGA | 0.0402 |
| TCCCAGTGAGTGATAGAGA | 0.528 |
| TCCCGGGAAGTAACAGAGA | 0.349 |
| TCCCGTTAAGTCGGCGAGA | 0.0145 |
| TCCCGGACAGTGATGGAGA | 0.168 |
| TCCCGTGTAGTGTTAGAGA | 0.24 |
| TCCCGATCAGTTGATGAGA | 0.188 |
| TCCCACGTAGTGGCTGAGA | 0.278 |
| TCCCAGGCAGTACCCGAGA | 0.223 |
| TCCCAATAAGTAAGTGAGA | 0.311 |
| TCCCGAGTAGTTAATGAGA | 0.184 |
| TCCCAACGAGTAGGCGAGA | 0.139 |
| TCCCGGCAAGTCTATGAGA | 0.176 |
| TCCCGGCTAGTTATGGAGA | 0.111 |
| TCCCGCGGAGTTTATGAGA | 0.184 |
| TCCCGGGAAGTTCTCGAGA | 0.366 |

| Sequence | TetR repression strength |
| --- | --- |
| TCCCGGACAGTGCTGGAGA | 0.309 |
| TCCCATGCAGTCTGAGAGA | 0.173 |
| TCCCTAAAAGTGGGCGAGA | 0.0935 |
| TCCCCAAGAGTTCGGGAGA | 0.249 |
| TCCCAAAGAGTGTTCGAGA | 0.322 |
| TCCCTAAGAGTTCGTGAGA | 0.287 |
| TCCCCAATAGTGTGGGAGA | 0.292 |
| TCCCGATGAGTGTGGGAGA | 0.221 |
| TCCCTGACAGTTGGGGAGA | 0.147 |
| TCCCAGGCAGTCTGCGAGA | 0.363 |
| TCCCGGACAGTAGTGGAGA | 0.194 |
| TCCCGGTGAGTCCCGGAGA | 0.333 |
| TCCCGCTAAGTAGCGGAGA | 0.154 |
| TCCCTTGTAGTGGTGGAGA | 0.228 |
| TCCCACGGAGTGACAGAGA | 0.433 |
| TCCCCGCAAGTTTATGAGA | 0.429 |
| TCCCGCGAAGTTACCGAGA | 0.0962 |
| TCCCGGTAAGTTCGCGAGA | 0.00619 |
| TCCCTTTGAGTTCTCGAGA | 0.29 |
| TCCCGCGGAGTGGTGGAGA | 0.155 |
| TCCCCTAGAGTGGGAGAGA | 0.258 |
| TCCCAGTTAGTGGGGGAGA | 0.317 |
| TCCCTCAGAGTTATGGAGA | 0.274 |
| TCCCCATGAGTCGCAGAGA | 0.394 |
| TCCCGGAGAGTGGGAGAGA | 0.194 |
| TCCCTTAAAGTATGCGAGA | 0.238 |

| Sequence | TetR repression strength |
| --- | --- |
| TCCCCTCGAGTCTGAGAGA | 0.89 |
| TCCCCCGGAGTGGGCGAGA | 0.111 |
| TCCCAGCTAGTTTGTGAGA | 0.314 |
| TCCCAAGCAGTCTAGGAGA | 0.119 |
| TCCCTGGCAGTCGGAGAGA | 0.194 |
| TCCCCTGTAGTTGGGGAGA | 0.247 |
| TCCCGGCGAGTAGCGGAGA | 0.129 |
| TCCCGAGGAGTCCAAGAGA | 0.293 |
| TCCCTCAAAGTCTAAGAGA | 0.207 |
| TCCCGTGGAGTGGTTGAGA | 0.104 |
| TCCCGTTGAGTGCACGAGA | 0.13 |
| TCCCAGTAAGTAGCGGAGA | 0.198 |
| TCCCGACCAGTCCGGGAGA | 0.267 |
| TCCCTGAGAGTGCCCGAGA | 0.332 |
| TCCCTATGAGTACCAGAGA | 0.857 |
| TCCCTGGCAGTAGTTGAGA | 0.12 |
| TCCCGCAGAGTAATTGAGA | 0.329 |
| TCCCCCCGAGTGATTGAGA | 0.412 |
| TCCCTGACAGTCATTGAGA | 0.317 |
| TCCCGCTGAGTGGTAGAGA | 0.311 |
| TCCCGATCAGTGCACGAGA | 0.104 |
| TCCCCCTGAGTGGCTGAGA | 0.0395 |
| TCCCGCATAGTCTTGGAGA | 0.338 |
| TCCCCGTAAGTTGAAGAGA | 0.279 |
| TCCCAGGTAGTCGTGGAGA | 0.323 |
| TCCCCTTAAGTGTAAGAGA | 0.0346 |

| Sequence | TetR repression strength |
| --- | --- |
| TCCCGTACAGTCCAGGAGA | 0.215 |
| TCCCGTGCAGTGGAGGAGA | 0.133 |
| TCCCGGGGAGTTTCCGAGA | 0.415 |
| TCCCCATCAGTGGCTGAGA | 0.234 |
| TCCCTATAAGTCCGAGAGA | 0.154 |
| TCCCTGTTAGTTCCCGAGA | 0.294 |
| TCCCAAATAGTCATTGAGA | 0.112 |
| TCCCGTGGAGTTGCAGAGA | 0.254 |
| TCCCGATAAGTTAGAGAGA | 0.279 |
| TCCCCCTTAGTGTAGGAGA | 0.288 |
| TCCCCAATAGTGTGTGAGA | 0.232 |
| TCCCGAAGAGTGGATGAGA | 0.192 |
| TCCCTCTAAGTTGGTGAGA | 0.22 |
| TCCCAGGGAGTGCAAGAGA | 0.293 |
| TCCCACCAAGTGGTTGAGA | 0.244 |
| TCCCGCGCAGTAAAGGAGA | 0.131 |
| TCCCTACAAGTTAGGGAGA | 0.034 |
| TCCCTCACAGTCAGCGAGA | 0.0204 |
| TCCCCGCCAGTGGGAGAGA | 0.338 |
| TCCCGTTGAGTTGTGGAGA | 0.138 |
| TCCCATTAAGTGATGGAGA | 0.275 |
| TCCCGGGTAGTGGTTGAGA | 0.291 |
| TCCCAAGTAGTTCGAGAGA | 0.192 |
| TCCCAATAAGTACGCGAGA | 0.348 |
| TCCCCGCGAGTGGCGGAGA | 0.202 |
| TCCCCTGGAGTTTGCGAGA | 0.627 |

| Sequence | TetR repression strength |
| --- | --- |
| TCCCGTCAAGTCTGCGAGA | 0.0266 |
| TCCCCACTAGTAGGTGAGA | 0.3 |
| TCCCTGACAGTAAAGGAGA | 0.363 |
| TCCCGCCCAGTTCGGGAGA | 0.378 |
| TCCCGTCGAGTGGAAGAGA | 0.253 |
| TCCCTGGGAGTAGCGGAGA | 0.13 |
| TCCCTGACAGTACTGGAGA | 0.276 |
| TCCCGGCGAGTTTAAGAGA | 0.285 |
| TCCCTGCGAGTGTTGGAGA | 0.157 |
| TCCCGCAGAGTGGGTGAGA | 0.206 |
| TCCCTGGGAGTCAGCGAGA | 0.227 |
| TCCCCATGAGTTGTAGAGA | 0.165 |
| TCCCGGCTAGTCGTAGAGA | 0.307 |
| TCCCGAATAGTGTTCGAGA | 0.161 |
| TCCCAATGAGTCGGGGAGA | 0.274 |
| TCCCGTGGAGTCGGTGAGA | 0.205 |
| TCCCCTTCAGTCATAGAGA | 0.474 |
| TCCCTTTGAGTGGCGGAGA | 0.286 |
| TCCCGCACAGTTCGGGAGA | 0 |
| TCCCGGCAAGTGCTAGAGA | 0.0222 |
| TCCCCGGTAGTAGAGGAGA | 0.19 |
| TCCCATAAAGTGCCAGAGA | 0.0202 |
| TCCCGAGCAGTGGGTGAGA | 0.152 |
| TCCCACGAAGTGGTCGAGA | 0.0726 |
| TCCCAGGCAGTTGGGGAGA | 0.327 |
| TCCCCAGGAGTCTATGAGA | 0 |

| Sequence | TetR repression strength |
| --- | --- |
| TCCCGCTGAGTTACCGAGA | 0.211 |
| TCCCTTTAAGTCATAGAGA | 0.551 |
| TCCCGGGGAGTTAGTGAGA | 0.189 |
| TCCCTAGAAGTTTAAGAGA | 0.0122 |
| TCCCACGGAGTAAAGGAGA | 0.205 |
| TCCCGTGTAGTCAGTGAGA | 0.215 |
| TCCCCGGAAGTGGCCGAGA | 0.187 |
| TCCCGCCCAGTTAGGGAGA | 0.402 |
| TCCCTAAAAGTCTACGAGA | 0.16 |
| TCCCGGGAAGTCGGGGAGA | 0.266 |
| TCCCATACAGTGGACGAGA | 0.185 |
| TCCCACCAAGTCCGAGAGA | 0.33 |
| TCCCCCAAAGTTTGTGAGA | 0.358 |
| TCCCCTTGAGTGCTTGAGA | 0.355 |
| TCCCATACAGTGTAAGAGA | 0.0864 |
| TCCCAGGGAGTTGGAGAGA | 0.265 |
| TCCCATAGAGTGCGTGAGA | 0.18 |
| TCCCCAGTAGTCTTCGAGA | 0.231 |
| TCCCTGTCAGTTTGAGAGA | 0.235 |
| TCCCGTGTAGTGATCGAGA | 0.209 |
| TCCCCCACAGTGTATGAGA | 0.333 |
| TCCCGCAGAGTGTAAGAGA | 0.753 |
| TCCCTTTGAGTTGGGGAGA | 0.0965 |
| TCCCTACGAGTGAGAGAGA | 0.338 |
| TCCCCTGGAGTGATGGAGA | 0.177 |
| TCCCCGTTAGTTGTAGAGA | 0.187 |

| Sequence | TetR repression strength |
| --- | --- |
| TCCCGGGTAGTTGGTGAGA | 0.171 |
| TCCCTACAAGTATGGGAGA | 0.393 |
| TCCCTCTCAGTTCGGGAGA | 0.161 |
| TCCCGAAGAGTTGAAGAGA | 0.161 |
| TCCCTAAGAGTTGAGGAGA | 0.0895 |
| TCCCTCCGAGTGGAGGAGA | 0.0996 |
| TCCCGGGGAGTTGGCGAGA | 0.183 |
| TCCCTCATAGTATGAGAGA | 0.207 |
| TCCCCAAAAGTGAGTGAGA | 0.131 |
| TCCCTAAAAGTGGGGGAGA | 0.143 |
| TCCCACACAGTGAGTGAGA | 0.189 |
| TCCCGGGAAGTTACAGAGA | 0.0346 |
| TCCCTATCAGTCGATGAGA | 0.531 |
| TCCCCCTGAGTACCTGAGA | 0.296 |
| TCCCTGCTAGTTGGTGAGA | 0.27 |
| TCCCTGGCAGTCACAGAGA | 0.298 |
| TCCCCCGTAGTGTGTGAGA | 0.12 |
| TCCCTCCCAGTGGGGGAGA | 0.217 |
| TCCCTTGTAGTAGGGGAGA | 0.255 |
| TCCCTGGCAGTCGATGAGA | 0.195 |
| TCCCGTTTAGTATTTGAGA | 0.713 |
| TCCCGTAAAGTTTTCGAGA | 0.162 |
